The other results are listed elsewhere or left out. Cleavage of a single-stranded DNA pool by Rep nickase domains was read by sequencing (1 h at 37 °C, 3 µM enzyme); the outer parts of the 90-letter strands are left off. A value is the log2 ratio of uncut reads to the pool without enzyme; more negative means more cut, near 0 not cut, and no call is made. The scaling is to total reads, so uncut sequences can rise above 0 when many others are cut.
Assays:
Experiment in all cases: uncleaved DNA left, log2 of reads against the no-enzyme library (log2 ratio); higher = less cleavage (more negative = more Rep cleavage of the k-mer); sequences stand for … in CTCGTCCG…ACCGGAGA
[1] = system: T1, Rep nickase domain of Muscovy duck circovirus
T1 sequence (protein, residues 1-111, tag omitted): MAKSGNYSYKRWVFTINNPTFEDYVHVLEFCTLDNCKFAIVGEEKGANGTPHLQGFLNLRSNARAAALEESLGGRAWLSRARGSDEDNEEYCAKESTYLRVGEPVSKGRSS
Procedure: (§1)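 A pool of 90-nt single-stranded DNAs with seven random bases just before the constant AC of the nick site (name = the seven bases) was cut by 3 µM recombinant His6-SUMO-tagged Rep nickase domain (300 nM DNA, 50 mM HEPES pH 8.0, 50 mM NaCl, 1 mM MnCl2, 1 h, 37 °C, three replicates). Uncut DNA was amplified and sequenced.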

[2] = system: T2, Rep nickase domain of banana bunchy top virus
T2 sequence (protein, residues 1-94, tag omitted): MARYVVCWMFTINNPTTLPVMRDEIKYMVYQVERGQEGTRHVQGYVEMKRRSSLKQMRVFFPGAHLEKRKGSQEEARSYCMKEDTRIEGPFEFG
Procedure: as §1

[3] = system: T3, Rep nickase domain of cabbage leaf curl virus
T3 sequence (protein, residues 1-116, tag omitted): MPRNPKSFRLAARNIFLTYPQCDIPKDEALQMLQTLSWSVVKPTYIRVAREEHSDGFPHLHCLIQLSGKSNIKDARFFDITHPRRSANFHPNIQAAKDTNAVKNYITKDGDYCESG
Procedure: as §1

[4] = system: T4, Rep nickase domain of chickpea chlorotic dwarf virus
T4 sequence (protein, residues 1-124, tag omitted): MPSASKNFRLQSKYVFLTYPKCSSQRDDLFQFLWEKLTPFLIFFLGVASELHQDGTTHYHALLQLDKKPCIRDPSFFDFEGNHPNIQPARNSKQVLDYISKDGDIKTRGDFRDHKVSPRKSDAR
Procedure: as §1

[5] = system: T5, Rep nickase domain of faba bean necrotic yellows virus
T5 sequence (protein, residues 1-98, tag omitted): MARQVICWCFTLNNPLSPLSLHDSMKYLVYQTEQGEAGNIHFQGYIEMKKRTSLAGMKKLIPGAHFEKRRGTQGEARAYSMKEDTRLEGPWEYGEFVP
Procedure: as §1

[6] = system: T6, Rep nickase domain of maize striate mosaic virus
T6 sequence (protein, residues 1-117, tag omitted): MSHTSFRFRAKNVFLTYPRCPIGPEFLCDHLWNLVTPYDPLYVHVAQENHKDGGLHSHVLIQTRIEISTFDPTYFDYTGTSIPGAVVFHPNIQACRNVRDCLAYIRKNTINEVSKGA
Procedure: as §1

[7] = system: T7, Rep nickase domain of porcine circovirus 2
T7 sequence (protein, residues 2-116, tag omitted): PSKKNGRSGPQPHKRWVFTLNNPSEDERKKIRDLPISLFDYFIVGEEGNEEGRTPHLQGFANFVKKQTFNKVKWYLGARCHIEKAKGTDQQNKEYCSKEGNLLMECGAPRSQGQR
Procedure: as §1

[8] = system: T8, Rep nickase domain of tomato golden mosaic virus
T8 sequence (protein, residues 1-124, tag omitted): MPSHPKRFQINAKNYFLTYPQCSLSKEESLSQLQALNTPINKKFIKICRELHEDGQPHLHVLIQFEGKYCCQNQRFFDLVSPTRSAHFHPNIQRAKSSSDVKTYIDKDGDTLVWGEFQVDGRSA
Procedure: as §1

[9] = system: T9, Rep nickase domain of tomato yellow leaf curl virus
T9 sequence (protein, residues 1-136, tag omitted): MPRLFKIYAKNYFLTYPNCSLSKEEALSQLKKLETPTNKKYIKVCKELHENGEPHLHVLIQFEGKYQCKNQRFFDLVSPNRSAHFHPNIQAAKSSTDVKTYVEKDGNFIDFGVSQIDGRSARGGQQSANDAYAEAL
Procedure: as §1

[10] = system: T10, Rep nickase domain of wheat dwarf virus
T10 sequence (protein, residues 1-137, tag omitted): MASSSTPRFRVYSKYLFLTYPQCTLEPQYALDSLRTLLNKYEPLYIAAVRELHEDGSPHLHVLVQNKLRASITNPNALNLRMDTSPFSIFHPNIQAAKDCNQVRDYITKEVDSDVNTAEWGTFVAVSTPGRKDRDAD
Procedure: as §1

Row | Sequence | uncleaved DNA left (log2) [1] | uncleaved DNA left (log2) [2] | uncleaved DNA left (log2) [3] | uncleaved DNA left (log2) [4] | uncleaved DNA left (log2) [5] | uncleaved DNA left (log2) [6] | uncleaved DNA left (log2) [7] | uncleaved DNA left (log2) [8] | uncleaved DNA left (log2) [9] | uncleaved DNA left (log2) [10]
1 | TAGCAGA | -0.0409 | -0.0846 | -0.0675 | -0.597 | 0.00954 | -0.777 | -0.133 | 0.0133 | -0.051 | -0.121
2 | TCGTAAA | 0.15 | 0.0536 | 0.137 | -0.0526 | 0.0748 | -0.255 | 0.0455 | 0.0646 | 0.0503 | 0.0489
3 | TTTTCCG | 0.00344 | -0.135 | -0.891 | -0.331 | -0.0116 | -1.21 | 0.104 | -0.147 | -0.0635 | -0.139
4 | CCCTAGA | 0.0423 | -0.0301 | -0.0756 | -0.487 | 0.0439 | -0.863 | 0.0363 | 0.0345 | 0.0644 | 0.0617
5 | ACCGACA | 0.0181 | 0.125 | -0.078 | -0.613 | 0.0683 | -0.604 | 0.121 | 0.0509 | -0.0875 | -0.114
6 | AGAGAGT | 0.0119 | -0.0731 | 0.0651 | 0.473 | -0.128 | 0.851 | 0.0984 | 0.0738 | -0.182 | 0.0527
7 | AGGGCCC | -0.0373 | 0.0106 | 0.367 | 0.946 | -0.0893 | 1.08 | 0.0763 | -0.02 | 0.075 | 0.0458
8 | CGAATCG | -0.136 | -0.0252 | -0.729 | -0.634 | -0.016 | -1.24 | 0.0675 | -0.105 | -0.125 | -0.138
9 | TCCGTTT | 0.063 | -0.0312 | 0.184 | -0.32 | -0.011 | 0.612 | -0.158 | 0.0194 | 0.182 | 0.0659
10 | AGCCGGA | 0.124 | -0.0434 | 0.114 | 0.425 | 0.00351 | 0.489 | 0.00492 | -0.0207 | 0.00626 | -0.0465
11 | AAAACTG | -0.0883 | -0.0521 | -0.105 | 0.738 | -0.0931 | 1.25 | -0.00709 | -0.0451 | -0.101 | 0.0258
12 | CCTTCGT | 0.166 | -0.0238 | -0.414 | -1.03 | 0.0332 | -1.08 | -0.0291 | -0.0727 | 0.0607 | 0.048
13 | ACATTGT | -0.00359 | 0.0575 | -0.654 | -0.879 | 0.093 | -1.18 | -0.0327 | -0.0684 | 0.0504 | -0.118
14 | CTGCCAC | -0.121 | -0.0639 | -0.106 | -0.136 | -0.00794 | -0.66 | -0.229 | -0.196 | -0.126 | 0.0121
15 | CGTATCC | -0.0283 | 0.0659 | 0.0706 | 0.15 | -0.0538 | -0.151 | -0.0336 | -0.131 | -0.0276 | 0.0693
16 | GCCTTTA | -0.0262 | -0.0124 | 0.139 | -0.187 | 0.138 | 0.284 | -0.0531 | -0.00829 | 0.0243 | 0.0762
17 | GGTGGGT | 0.0644 | 0.0695 | 0.576 | 1.31 | 0.0729 | 1.79 | 0.148 | 0.0538 | 0.102 | 0.0456
18 | CCTAACA | 0.000581 | -0.1 | -0.427 | -2.39 | -0.0792 | -0.852 | -0.078 | -0.0337 | 0.0281 | -0.0721
19 | CGCTATA | -0.00442 | -0.0772 | -0.152 | -1.35 | -0.0106 | -0.507 | 0.0234 | -0.0697 | 0.00535 | -0.107
20 | TGACACC | -0.0524 | -0.0446 | 0.237 | 0.484 | -0.0819 | 0.732 | -0.127 | -0.0769 | -0.0326 | -0.0306
21 | TGAGGCG | -0.00758 | -0.108 | -0.865 | 0.356 | -0.0129 | -0.701 | 0.0733 | -0.0493 | -0.0925 | -0.0859
22 | CCAAGGA | -0.157 | -0.0833 | 0.086 | 0.284 | -0.201 | -0.393 | 0.055 | -0.0384 | -0.194 | -0.0328
23 | TCACGAA | 0.142 | -0.0652 | 0.00636 | -0.431 | 0.025 | -0.742 | 0.0585 | 0.0581 | 0.0219 | -0.0396
24 | GGCTGAG | 0.115 | -0.0539 | 0.425 | 0.997 | 0.0134 | 0.587 | 0.299 | 0.0728 | 0.163 | 0.201
25 | CACAATT | -0.0533 | -0.96 | -0.826 | -2.94 | 0.0693 | -0.798 | -3.18 | -0.0635 | 0.0189 | 0.115
26 | TACGGGG | 0.0465 | 0.0386 | 0.503 | 0.761 | 0.0178 | 1.2 | 0.243 | 0.113 | -0.154 | 0.0522
27 | ATCTTCG | -0.037 | -0.0975 | -0.933 | -0.254 | -0.111 | -1.26 | 0.0141 | -0.108 | -0.0581 | -0.123
28 | CGATGTT | -2.83 | -0.301 | -0.838 | -1.98 | 0.0468 | -0.128 | -3.2 | -0.444 | -0.0854 | -0.77
29 | TTACTGC | 0.0859 | 0.0192 | -0.162 | -0.942 | 0.124 | -0.529 | 0.106 | -0.0673 | -0.0046 | 0.109
30 | ACTTGTC | 0.00833 | -0.0275 | -0.595 | -0.622 | -0.119 | -1.03 | 0.0212 | -0.137 | 0.0398 | -0.0862
